According to article PMC4336329 (PLoS ONE, 2015):
Out of some 310,000 compounds screened, about 14,000 (4.5%) showed an effect of 50% or more. Effects have a minus sign here. The list shows a part of the results.

Target: human ether-à-go-go-related gene (hERG) potassium channel (human, UniProt Q12809)
Assay: primary screen, population patch clamp on CHO cells stably expressing hERG
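Note: peak tail current of the secondary pulse compared with the same well before compound.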

Sequence of human ether-à-go-go-related gene (hERG) potassium channel (Q12809 whole entry, looked up): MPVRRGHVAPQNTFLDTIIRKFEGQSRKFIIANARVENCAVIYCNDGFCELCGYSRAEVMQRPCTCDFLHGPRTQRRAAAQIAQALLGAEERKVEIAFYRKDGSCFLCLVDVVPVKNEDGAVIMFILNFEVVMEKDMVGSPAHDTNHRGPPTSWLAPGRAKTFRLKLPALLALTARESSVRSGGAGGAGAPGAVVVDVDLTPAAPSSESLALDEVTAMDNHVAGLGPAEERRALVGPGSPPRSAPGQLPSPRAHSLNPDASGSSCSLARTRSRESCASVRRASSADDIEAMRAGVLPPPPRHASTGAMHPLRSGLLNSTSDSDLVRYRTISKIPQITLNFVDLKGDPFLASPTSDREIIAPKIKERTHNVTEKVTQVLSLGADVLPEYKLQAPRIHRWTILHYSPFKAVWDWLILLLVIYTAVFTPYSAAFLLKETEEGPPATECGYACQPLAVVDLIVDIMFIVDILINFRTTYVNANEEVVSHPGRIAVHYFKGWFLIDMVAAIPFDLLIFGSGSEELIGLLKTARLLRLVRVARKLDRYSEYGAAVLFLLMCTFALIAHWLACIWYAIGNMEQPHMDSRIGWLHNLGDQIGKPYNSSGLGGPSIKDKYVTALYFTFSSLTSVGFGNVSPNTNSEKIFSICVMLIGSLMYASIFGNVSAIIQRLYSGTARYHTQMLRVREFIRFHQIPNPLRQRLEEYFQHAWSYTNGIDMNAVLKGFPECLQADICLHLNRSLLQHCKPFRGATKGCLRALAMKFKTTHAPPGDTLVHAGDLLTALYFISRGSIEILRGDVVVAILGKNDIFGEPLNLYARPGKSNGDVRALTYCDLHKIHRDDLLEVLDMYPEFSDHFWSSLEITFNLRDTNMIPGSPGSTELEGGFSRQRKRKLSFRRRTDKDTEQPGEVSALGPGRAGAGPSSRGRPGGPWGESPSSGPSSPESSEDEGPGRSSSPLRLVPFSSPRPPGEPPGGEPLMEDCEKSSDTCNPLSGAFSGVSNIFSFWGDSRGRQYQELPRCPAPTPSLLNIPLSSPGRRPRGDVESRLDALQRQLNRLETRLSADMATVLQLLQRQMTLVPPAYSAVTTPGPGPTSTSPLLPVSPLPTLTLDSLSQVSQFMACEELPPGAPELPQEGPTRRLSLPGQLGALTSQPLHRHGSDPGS

Structure (SMILES) | hERG current change (%, negative = inhibition) at 10uM
C=CCn1c(SCC(C)=O)nc2scc(-c3ccc(C)o3)c2c1=O | 16.6%
O=C(Cn1cnc2sc(-c3ccccc3)cc2c1=O)NCc1ccco1 | -3.75%
CC(CCc1ccccc1)NC(=O)c1ccccc1 (stereo not shown) | 5.58%
CC(=O)Nc1c2c(nn1-c1ccc(C)cc1C)CS(=O)C2 (stereo not shown) | 8.17%
CCn1cc(S(=O)(=O)CC(=O)Nc2ccc3c(c2)OCO3)c2ccccc21 | 11.2%
O=C(CN1CCN(S(=O)(=O)c2ccc(C(F)(F)F)cc2)CC1)N1CCNC1=O | -0.563%
CCOC(=O)N1CCN(C(=O)COc2ccc3c(c2)C(=O)CC2(CCN(C(C)=O)CC2)O3)CC1 | -2.13%
Cn1ncc(Cl)c1C(=O)N1CCc2ccccc21 | -13.9%
CCCOc1ccc2oc(=O)c3c(c2c1)CCCN3C(=O)CN1CCCC(C(=O)OCC)C1 (stereo not shown) | -65.5%
Cc1ccc(S(=O)(=O)N2CCOCC2)cc1NC(=O)COc1cccc(-n2cnnn2)c1 | -30.2%
Cc1nn(C)cc1S(=O)(=O)NC1CCCC1 | 12.8%
COc1ccc(-c2noc(N3CCC(C(=O)NCCCN4CCC(C)CC4)CC3)n2)cc1 | -49%
CCOc1ccc(C2NC(=O)NC(C)=C2[N+](=O)[O-])cc1OC (stereo not shown) | 24.6%
CC(C)c1nc2sc(C(=O)O)c(N)c2c2c1CCCC2 | 9.9%
CC12CCC(C(=Nc3ccc(N=C4C(=O)C5(C)CCC4C5(C)C)cc3)C1=O)C2(C)C | -5.24%
COc1ccc(NC(=O)c2ccc(S(=O)(=O)N(C)c3ccccc3)cc2)cn1 | -29.4%
Cc1ccccc1C(=O)c1cccn1CC(=O)N1CCCCCC1 | 3.97%
COc1ccc(C2=NO[C@@H]3[C@@H]4C[C@@H]([C@H]5C(=O)N(c6ccc7c(c6)OCO7)C(=O)[C@@H]45)[C@H]23)cc1OC | -11.8%
CCN1CCN(C(=O)NC(c2ccc(C)c(F)c2)C(Cl)Cl)CC1 (stereo not shown) | -12.8%
CN(C)c1ccc(/C=C/c2ccc3ccccc3n2)cc1 | 19.3%
O=C(Nc1cccc2ncccc12)c1cccnc1 | 14.5%
CCOC(=O)N1CCc2c(sc3c2c(=O)n(Cc2ccccc2)c(=O)n3CC(=O)NCCOC)C1 | -19.1%

Structure (SMILES) | hERG current change (%, negative = inhibition) at 10uM
O=C(Nc1ccccc1)C1C2CCCCC21 (stereo not shown) | -1.94%
COC(=O)[C@@]12CCCCN1[C@H](c1ccc(SC3CCCCC3)c(OC)c1)[C@@H]1C(=O)N(C)C(=O)[C@@H]12.O=C(O)C(F)(F)F | 19.8%
COc1cccc(-n2c(Cn3nc(C(F)F)cc3C(F)F)n[nH]c2=S)c1 | 6.13%
CC1CCN(CCCNC(=O)C2CCC(CNS(=O)(=O)c3cccc4nsnc34)CC2)CC1 (stereo not shown) | 2.56%
CC(C)COc1ccc(S(=O)(=O)n2cc(F)c(=O)[nH]c2=O)cc1 | -0.0681%
NC(=O)C1CCN(C(=O)CCSCc2ccc(Cl)c(Cl)c2)CC1 | -13.3%
CCN(CC)c1ccc(-n2c(C)c(C(C)=O)c(C(C)=O)c2C)cc1 | 9.56%
COc1ccccc1N(C)S(=O)(=O)c1ccc(Cl)c(C(=O)N2CCC(C(N)=O)CC2)c1 | 4.23%
O=C(OCc1nnc(-c2ccccc2)o1)c1cc(F)c(F)cc1Cl | -8.47%
COc1ccc(C(C(=O)NCC2CCCO2)N(Cc2cccs2)C(=O)c2snc(C(N)=O)c2N)cc1 (stereo not shown) | 17.1%
CC(=O)Nc1ccc(Nc2ncnc3ccccc23)cc1 | 10.9%
CCOC(=O)C1CCN(C(=S)Nc2ccc(C)cc2)CC1 | 24.8%
O=c1[nH]c(=S)c2c(n1-c1ccccc1)CCC2 | 9.25%
CCOC(=O)c1ccc(CNC(=O)C2CCC(=O)N(CCc3ccccc3)C2)o1 (stereo not shown) | -8.45%
COc1ccc(N2CCN(CC(O)COC(C)(C)C)CC2)cc1.O=C(O)C(=O)O (stereo not shown) | 10.2%
Cc1cc([N+](=O)[O-])nn1CCCC(=O)Nc1sc2c(c1C(N)=O)CCC(C)C2 (stereo not shown) | -12.1%
Cc1cc2ncn(S(=O)(=O)c3ccc(S(=O)(=O)N4CCOCC4)cc3)c2cc1C | 4.83%
CCOc1ccc(/C=N/NS(=O)(=O)c2ccc(C)cc2)cc1OC | 16%
O=C(Nc1cccc2c1C(=O)NC2=O)c1ccccc1[N+](=O)[O-] | 17%
Cc1cc(-n2c(SCC(=O)NCCC3=CCCCC3)nc3n[nH]c(C)c3c2=N)ccc1Cl | 4.5%
Cc1onc(-c2ccccc2)c1C(=O)NNC(=O)c1ccccc1Br | 0.219%
